Test results as given in paper PMC6294051.
Results are given in words; binding and its absence hold for the method and conditions named. Some binding calls cover weakened binding; strength is not graded here. Tags and fused reporters may be left off the sequences shown.

Columns and labels:
Assay in all cases: two-hybrid
[1] = target: T1, LexA-XA21JK (juxtamembrane and kinase domain of rice XA21), wildtype (rice) (UniProt Q1MX30)
T1 sequence: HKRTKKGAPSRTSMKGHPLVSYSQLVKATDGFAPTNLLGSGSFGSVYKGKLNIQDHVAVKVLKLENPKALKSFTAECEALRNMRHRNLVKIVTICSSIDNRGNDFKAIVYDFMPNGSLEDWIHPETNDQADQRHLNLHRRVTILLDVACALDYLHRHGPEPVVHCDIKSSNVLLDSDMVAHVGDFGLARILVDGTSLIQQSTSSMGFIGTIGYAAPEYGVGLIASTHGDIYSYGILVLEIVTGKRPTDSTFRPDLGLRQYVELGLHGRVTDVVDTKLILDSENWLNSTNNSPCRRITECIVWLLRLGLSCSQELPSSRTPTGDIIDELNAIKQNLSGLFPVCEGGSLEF

[2] = target: T2, LexA-XA21JK^D842N (rice) (UniProt Q1MX30)
T2 sequence: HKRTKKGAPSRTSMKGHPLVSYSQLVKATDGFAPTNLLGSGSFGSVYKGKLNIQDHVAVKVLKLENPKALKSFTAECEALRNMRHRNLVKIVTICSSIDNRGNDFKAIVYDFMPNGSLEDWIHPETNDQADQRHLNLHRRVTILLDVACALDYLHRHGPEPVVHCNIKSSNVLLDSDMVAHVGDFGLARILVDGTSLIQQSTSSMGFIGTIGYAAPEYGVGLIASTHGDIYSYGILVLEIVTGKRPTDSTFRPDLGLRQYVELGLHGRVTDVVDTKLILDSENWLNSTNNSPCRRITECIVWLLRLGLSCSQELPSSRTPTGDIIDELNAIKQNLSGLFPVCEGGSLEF

[3] = target: T3, LexA-XA21JK^Y698D (rice) (UniProt Q1MX30)
T3 sequence: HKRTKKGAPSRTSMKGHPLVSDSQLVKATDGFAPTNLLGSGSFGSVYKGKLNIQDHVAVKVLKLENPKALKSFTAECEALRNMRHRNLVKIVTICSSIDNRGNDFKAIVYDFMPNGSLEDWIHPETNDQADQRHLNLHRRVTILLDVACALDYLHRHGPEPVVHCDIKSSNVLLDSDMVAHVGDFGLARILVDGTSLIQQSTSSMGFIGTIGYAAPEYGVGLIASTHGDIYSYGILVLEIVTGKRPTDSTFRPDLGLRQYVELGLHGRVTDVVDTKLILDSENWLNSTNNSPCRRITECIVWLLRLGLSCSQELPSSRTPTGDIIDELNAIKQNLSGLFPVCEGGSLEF

[4] = target: T4, LexA-XA21JK^Y698F (rice) (UniProt Q1MX30)
T4 sequence: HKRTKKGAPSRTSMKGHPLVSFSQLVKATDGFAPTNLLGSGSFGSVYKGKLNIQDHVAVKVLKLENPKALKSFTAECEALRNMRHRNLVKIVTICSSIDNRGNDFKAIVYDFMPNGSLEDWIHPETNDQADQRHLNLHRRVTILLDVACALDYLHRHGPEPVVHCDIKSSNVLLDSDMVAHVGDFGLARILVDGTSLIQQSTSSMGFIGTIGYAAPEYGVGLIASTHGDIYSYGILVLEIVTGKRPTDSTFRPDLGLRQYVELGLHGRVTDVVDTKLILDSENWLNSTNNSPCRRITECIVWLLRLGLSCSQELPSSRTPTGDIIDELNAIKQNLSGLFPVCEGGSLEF

[5] = target: T5, LexA-XA21JK^Y786D (rice) (UniProt Q1MX30)
T5 sequence: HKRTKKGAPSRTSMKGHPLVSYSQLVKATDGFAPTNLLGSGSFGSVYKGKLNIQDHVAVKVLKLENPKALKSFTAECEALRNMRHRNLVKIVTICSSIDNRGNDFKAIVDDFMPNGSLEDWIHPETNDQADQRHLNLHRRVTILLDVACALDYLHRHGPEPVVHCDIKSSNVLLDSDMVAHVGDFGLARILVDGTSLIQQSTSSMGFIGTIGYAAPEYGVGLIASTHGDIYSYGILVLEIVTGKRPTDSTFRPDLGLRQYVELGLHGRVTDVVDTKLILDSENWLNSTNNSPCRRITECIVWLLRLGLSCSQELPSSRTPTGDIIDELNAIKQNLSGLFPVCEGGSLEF

[6] = target: T6, LexA-XA21JK^Y786F (rice) (UniProt Q1MX30)
T6 sequence: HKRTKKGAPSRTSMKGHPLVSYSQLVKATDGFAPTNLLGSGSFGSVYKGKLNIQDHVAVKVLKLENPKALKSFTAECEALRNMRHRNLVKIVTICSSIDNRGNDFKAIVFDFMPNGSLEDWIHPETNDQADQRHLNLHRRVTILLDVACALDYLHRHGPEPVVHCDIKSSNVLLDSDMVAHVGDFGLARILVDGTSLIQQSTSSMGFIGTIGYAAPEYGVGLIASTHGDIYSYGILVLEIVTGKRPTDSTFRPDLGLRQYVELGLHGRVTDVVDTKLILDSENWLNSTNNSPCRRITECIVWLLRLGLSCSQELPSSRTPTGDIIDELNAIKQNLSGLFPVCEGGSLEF

[7] = target: T7, LexA-XA21JK^Y907D (rice) (UniProt Q1MX30)
T7 sequence: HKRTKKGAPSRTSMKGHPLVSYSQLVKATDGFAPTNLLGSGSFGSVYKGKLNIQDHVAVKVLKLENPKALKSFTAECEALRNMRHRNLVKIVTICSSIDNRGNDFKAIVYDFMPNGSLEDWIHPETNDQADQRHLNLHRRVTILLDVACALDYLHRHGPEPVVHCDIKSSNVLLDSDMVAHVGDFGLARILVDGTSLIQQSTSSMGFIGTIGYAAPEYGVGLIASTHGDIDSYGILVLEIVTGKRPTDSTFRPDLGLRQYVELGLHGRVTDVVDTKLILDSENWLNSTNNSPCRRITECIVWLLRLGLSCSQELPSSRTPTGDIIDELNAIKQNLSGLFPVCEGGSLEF

[8] = target: T8, LexA-XA21JK^Y907F (rice) (UniProt Q1MX30)
T8 sequence: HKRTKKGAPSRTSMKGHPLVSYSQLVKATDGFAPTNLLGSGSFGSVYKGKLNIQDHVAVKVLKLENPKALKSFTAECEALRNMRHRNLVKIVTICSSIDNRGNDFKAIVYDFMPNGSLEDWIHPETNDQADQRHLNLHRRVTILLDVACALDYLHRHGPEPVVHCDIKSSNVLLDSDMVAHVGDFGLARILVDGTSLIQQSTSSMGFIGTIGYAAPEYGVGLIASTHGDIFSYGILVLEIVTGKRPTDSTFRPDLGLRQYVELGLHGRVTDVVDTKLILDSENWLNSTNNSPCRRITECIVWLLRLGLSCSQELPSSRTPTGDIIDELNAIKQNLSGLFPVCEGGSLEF

[9] = target: T9, LexA-XA21JK^Y909D (rice) (UniProt Q1MX30)
T9 sequence: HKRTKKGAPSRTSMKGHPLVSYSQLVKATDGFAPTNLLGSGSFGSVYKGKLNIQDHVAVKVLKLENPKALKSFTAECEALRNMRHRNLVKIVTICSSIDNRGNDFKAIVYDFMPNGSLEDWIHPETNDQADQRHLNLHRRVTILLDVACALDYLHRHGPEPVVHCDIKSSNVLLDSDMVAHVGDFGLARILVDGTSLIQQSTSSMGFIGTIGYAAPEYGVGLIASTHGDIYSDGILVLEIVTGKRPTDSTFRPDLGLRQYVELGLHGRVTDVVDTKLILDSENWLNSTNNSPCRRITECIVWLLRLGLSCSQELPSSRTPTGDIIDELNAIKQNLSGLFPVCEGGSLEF

[10] = target: T10, LexA-XA21JK^Y909F (rice) (UniProt Q1MX30)
T10 sequence: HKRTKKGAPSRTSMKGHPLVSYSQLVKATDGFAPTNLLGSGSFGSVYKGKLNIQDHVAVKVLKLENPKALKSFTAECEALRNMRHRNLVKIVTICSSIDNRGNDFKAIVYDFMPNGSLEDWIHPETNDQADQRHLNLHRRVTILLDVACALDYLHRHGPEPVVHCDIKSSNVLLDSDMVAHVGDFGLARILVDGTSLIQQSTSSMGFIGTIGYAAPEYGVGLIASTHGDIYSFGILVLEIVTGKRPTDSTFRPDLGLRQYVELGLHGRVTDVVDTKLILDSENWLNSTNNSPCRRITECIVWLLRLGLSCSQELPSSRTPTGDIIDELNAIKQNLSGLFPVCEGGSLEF

binding [1]: binds | binding [2]: binds | binding [3]: no binding | binding [4]: binds | binding [5]: binds | binding [6]: binds | binding [7]: binds | binding [8]: binds | binding [9]: no binding | binding [10]: binds
B1: HA-XB3 (XA21 binding protein 3, an E3-ubiquitin ligase) (protein, UniProt Q65XV2 1-450)
chain: MGHGVSCARTGDEHDFFRAAQLGDLDALAALLAADPSLARRATLYDRLSVLHIAAANGRIEVLSMFLDRGAPPDAVNRHKQTPLMLAAMHGKIDCVLKLLQADANILMFDSVHARTCLHHAAYYGHVDCLQAILAAAQTTPVADSWGFARFVNVRDDHGATPLHLAARQGRPGCVQVLLENGAIVSALTGSYGFPGSTSLHLAARSGNLDCIRKLLAWGADRLQRDSAGRIPYSVALKRNHGACAALLNPTSAEPMVWPSPLKFISELEPEAKALLEAALMEANREREKKILNGTKYSLPSPSPGDDSADDDACSEVSDTELCCICFDQACTIEVQDCGHQMCAPCTLALCCHNKPNPTTLTPPSPACPFCRGSISRLVVAQTRSACDPDKPSSLQLTRKRSRRSHNLSEGSSSFKGLPSAMGSFSKLGRGSSRMADSDSSNLDKPEHDL
